Test results taken from ChEMBL document CHEMBL5606458, “ASAP - ZIKV NS2B-NS3 protease fluorescence single point” (2024).
The campaign covered roughly 2,700 compounds. About 160 (5.9%) showed an effect of 50% or more. This is one part of the list.

Target: Nonstructural protein 3 (Zika virus) (UniProt A0A024AXB9)
[1] = PRVABC59, Concentration 50.0 uM, Number of replicates 1.0
[2] = PRVABC59, Concentration 15.0 uM, Number of replicates 1.0

Sequence of UniProt A0A024AXB9 (A0A024AXB9 as listed by the source): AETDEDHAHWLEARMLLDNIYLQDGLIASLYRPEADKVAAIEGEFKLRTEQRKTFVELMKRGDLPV

Structure (SMILES): NCc1cccc(NC(=O)CCN2C(=O)OCc3ccccc32)c1
- inhibition (PRVABC59, Concentration 49.5 uM, Number of replicates 2.0, Standard deviation 3.0701678343726093 %): -2.59%
- inhibition (PRVABC59, Concentration 99.01 uM, Number of replicates 2.0, Standard deviation 2.6435278888045337 %): -2.9%
- inhibition (PRVABC59, Concentration 198.0 uM, Number of replicates 2.0, Standard deviation 2.687832866693428 %): -0.913%

Structure (SMILES): O=Cc1ccc(N2CCC(C(=O)Nc3ccc(Br)nc3)CC2)cc1
- inhibition [1]: 20.6%

Structure (SMILES): O=C(NCc1cocn1)c1cc(Cl)ccc1NS(=O)(=O)c1ccc(Oc2ccccc2Cl)cc1
- inhibition (PRVABC59, Concentration 49.5 uM, Number of replicates 2.0, Standard deviation 2.920306580150363 %): -7.64%

Structure (SMILES): O=C(c1cc(Cl)ccc1NS(=O)(=O)c1ccc(Oc2ccccc2Cl)cc1)N1CCN(c2ccc(Br)cn2)CC1
- inhibition [2]: 18.6%

Structure (SMILES): CS(=O)(=O)C1CCN(C(=O)C2CCN(c3ccc(C=O)cc3)CC2)CC1
- inhibition [1]: 21.9%

Structure (SMILES): O=Cc1ccc(N2CCC(C(=O)Nc3ccc4cc(Br)ccc4c3)CC2)cc1
- inhibition [1]: 17.1%

Structure (SMILES): COc1ccc(CNC(=O)c2cc(Cl)ccc2NS(=O)(=O)c2ccc(Oc3ccccc3Cl)cc2)cc1F
- inhibition [2]: 26.5%

Structure (SMILES): CC(C)c1nc(CN(C)C(=O)C2CCN(c3ccc(C=O)cc3)CC2)cs1
- inhibition [1]: 26.5%

Structure (SMILES): COc1cc(COCc2cccnc2OC)nc(N2CCNCC2)n1
- inhibition (PRVABC59, Concentration 49.5 uM, Number of replicates 2.0, Standard deviation 0.5592032480776322 %): 0.921%
- inhibition (PRVABC59, Concentration 99.01 uM, Number of replicates 2.0, Standard deviation 0.7551145704513664 %): 3.73%
- inhibition (PRVABC59, Concentration 198.0 uM, Number of replicates 2.0, Standard deviation 0.007608349093186591 %): 4.1%

Structure (SMILES): Cc1cc(-c2ccccc2C(=O)Nc2cnn(C)c2)cnc1F
- inhibition (PRVABC59, Concentration 49.5 uM, Number of replicates 2.0, Standard deviation 2.713302417982804 %): -0.745%
- inhibition (PRVABC59, Concentration 99.01 uM, Number of replicates 2.0, Standard deviation 2.16573844358994 %): -2.37%
- inhibition (PRVABC59, Concentration 198.0 uM, Number of replicates 2.0, Standard deviation 2.214774041707614 %): -1.54%

Structure (SMILES): CC(C)(CO)NC(=O)c1cc(Cl)cc(NC(=O)c2ccccc2Oc2cccnc2)c1
- inhibition (PRVABC59, Concentration 49.5 uM, Number of replicates 2.0, Standard deviation 1.291469927657546 %): -0.385%
- inhibition (PRVABC59, Concentration 99.01 uM, Number of replicates 2.0, Standard deviation 0.5468063004971834 %): 2.03%
- inhibition (PRVABC59, Concentration 198.0 uM, Number of replicates 2.0, Standard deviation 0.07914301495896872 %): 5.14%

Structure (SMILES): O=C(Nc1ncc(F)cc1Br)c1cc(Cl)ccc1NS(=O)(=O)c1ccc(Oc2ccccc2Cl)cc1
- inhibition [2]: 23.4%

Structure (SMILES): O=Cc1ccc(N2CCC(C(=O)NCCC(=O)NC3CCCCC3)CC2)cc1
- inhibition [1]: 24%

Structure (SMILES): NCc1cccc(NC(=O)[C@H]2COCCN2C(=O)OCc2ccccc2)c1
- inhibition (PRVABC59, Concentration 49.5 uM, Number of replicates 2.0, Standard deviation 1.7393789010050076 %): 1.96%
- inhibition (PRVABC59, Concentration 99.01 uM, Number of replicates 2.0, Standard deviation 3.9759576832783616 %): 2.52%
- inhibition (PRVABC59, Concentration 198.0 uM, Number of replicates 2.0, Standard deviation 2.8125429890667983 %): 4.31%

Structure (SMILES): CN(Cc1cccc(F)c1F)C(=O)c1cc(Cl)ccc1NS(=O)(=O)c1ccc(Oc2ccccc2Cl)cc1
- inhibition [2]: 31.2%

Structure (SMILES): O=Cc1ccc(N2CCC(C(=O)Nc3cccc(Br)c3)CC2)cc1
- inhibition [1]: 23.9%

Structure (SMILES): COc1ccc(CNC(=O)c2cc(Cl)ccc2NS(=O)(=O)c2ccc(Oc3ccccc3Cl)cc2)c(OC)c1
- inhibition [2]: 20.6%

Structure (SMILES): Cc1nn(C)nc1-c1nn(C)cc1NC(=O)c1ccccc1C(F)(F)F
- inhibition (PRVABC59, Concentration 49.5 uM, Number of replicates 2.0, Standard deviation 2.2519783556354156 %): -2.6%
- inhibition (PRVABC59, Concentration 99.01 uM, Number of replicates 2.0, Standard deviation 1.3148531256519356 %): -2.5%
- inhibition (PRVABC59, Concentration 198.0 uM, Number of replicates 2.0, Standard deviation 2.1602443068586057 %): -3.44%

Structure (SMILES): COc1nc(Br)cnc1NC(=O)c1cc(Cl)ccc1NS(=O)(=O)c1ccc(Oc2ccccc2Cl)cc1
- inhibition [2]: 20.7%

Structure (SMILES): O=C(c1cc(Cl)ccc1NS(=O)(=O)c1ccc(Oc2ccccc2Cl)cc1)N1CCC(O)(c2ccc(Br)cc2)CC1
- inhibition [2]: 23.5%

Structure (SMILES): O=C(N[C@H]1CC(=O)N(c2ccccc2Cl)C1)c1cc(Cl)ccc1NS(=O)(=O)c1ccc(Oc2ccccc2Cl)cc1
- inhibition [2]: 17.8%

Structure (SMILES): O=Cc1ccc(N2CCC(C(=O)Nc3cc(Cl)c(F)cc3F)CC2)cc1
- inhibition [1]: 26.1%

Structure (SMILES): N#C[C@@H](NC(=O)C1CCN(c2ccc(C=O)cc2)CC1)c1ccc(F)cc1
- inhibition (PRVABC59, Concentration 10.0 uM, Number of replicates 1.0): 25.4%

Structure (SMILES): COc1ccc(C)cc1NC(=O)CNC(=O)C1CCN(c2ccc(C=O)cc2)CC1
- inhibition [1]: 16.9%

Structure (SMILES): COc1cc(CS(=O)(=O)C2CCOCC2)nc(N2CCNCC2)n1
- inhibition (PRVABC59, Concentration 49.5 uM, Number of replicates 2.0, Standard deviation 5.067066171415302 %): 2.9%
- inhibition (PRVABC59, Concentration 99.01 uM, Number of replicates 2.0, Standard deviation 0.4888272833711116 %): 0.761%
- inhibition (PRVABC59, Concentration 198.0 uM, Number of replicates 2.0, Standard deviation 0.3613898384306013 %): 1.52%

Structure (SMILES): C[C@@H](NC(=O)c1cc(Cl)ccc1NS(=O)(=O)c1ccc(Oc2ccccc2Cl)cc1)c1ccc2ccccc2c1
- inhibition [2]: 29.4%

Structure (SMILES): N#Cc1ccc(NC(=O)c2cc(Cl)ccc2NS(=O)(=O)c2ccc(Oc3ccccc3Cl)cc2)c(I)c1
- inhibition [2]: 22%

Structure (SMILES): O=Cc1ccc(N2CCC(C(=O)N3CCn4c(nnc4C(F)(F)F)C3)CC2)cc1
- inhibition [1]: 23.9%

Structure (SMILES): CC(C)N(Cc1cnn(C)c1)C(=O)c1cc(Cl)ccc1NS(=O)(=O)c1ccc(Oc2ccccc2Cl)cc1
- inhibition [2]: 21.9%

Structure (SMILES): CN1C(=O)c2ccc(NC(=O)c3cc(Cl)ccc3NS(=O)(=O)c3ccc(Oc4ccccc4Cl)cc3)cc2C1=O
- inhibition [2]: 29.1%

Structure (SMILES): O=Cc1ccc(N2CCC(C(=O)Nc3nc4[nH]cnc4c(=O)[nH]3)CC2)cc1
- inhibition [1]: 21.6%

Structure (SMILES): Cc1ccc(C[C@H]2CCCN(C(=O)C3CCN(c4ccc(C=O)cc4)CC3)C2)cc1
- inhibition [1]: 17.5%

Structure (SMILES): CC(C)(CO)NC(=O)c1cc(Cl)cc(NC(=O)c2c[nH]c(C(=O)N3CCCC3)c2)c1
- inhibition (PRVABC59, Concentration 49.5 uM, Number of replicates 2.0, Standard deviation 0.597244234900292 %): 1%
- inhibition (PRVABC59, Concentration 99.01 uM, Number of replicates 2.0, Standard deviation 0.5630073383305285 %): 0.27%
- inhibition (PRVABC59, Concentration 198.0 uM, Number of replicates 2.0, Standard deviation 0.35948783545100166 %): -1.43%

Structure (SMILES): O=Cc1ccc(N2CCC(C(=O)N3CCN(C(=O)Cc4ccccc4)CC3)CC2)cc1
- inhibition [1]: 26.3%

Structure (SMILES): O=C(Nc1cnc(Br)cn1)c1cc(Cl)ccc1NS(=O)(=O)c1ccc(Oc2ccccc2Cl)cc1
- inhibition [2]: 22.6%

Structure (SMILES): COc1ccccc1C[C@H](C)N(C)C(=O)c1cc(Cl)ccc1NS(=O)(=O)c1ccc(Oc2ccccc2Cl)cc1
- inhibition [2]: 22.2%

Structure (SMILES): c1ccc2c([C@H]3CCN(Cc4cnc5ccccn45)C3)c[nH]c2c1
- inhibition (PRVABC59, Concentration 49.5 uM, Number of replicates 2.0, Standard deviation 1.722881570826631 %): 7.68%
- inhibition (PRVABC59, Concentration 99.01 uM, Number of replicates 2.0, Standard deviation 0.2228084717158711 %): 10.5%
- inhibition (PRVABC59, Concentration 198.0 uM, Number of replicates 2.0, Standard deviation 0.8886437101413989 %): 14.8%

Structure (SMILES): COc1cccc(CCNC(=O)C2CCN(c3ccc(C=O)cc3)CC2)c1
- inhibition [1]: 1.02%

Structure (SMILES): Cc1cccc(OC2CN(C(=O)C3CCN(c4ccc(C=O)cc4)CC3)C2)c1
- inhibition [1]: 29.4%

Structure (SMILES): CC(C)CN1CC[C@H](CNC(=O)c2cc(Cl)ccc2NS(=O)(=O)c2ccc(Oc3ccccc3Cl)cc2)C1
- inhibition [2]: 15.7%

Structure (SMILES): O=Cc1ccc(N2CCC(C(=O)NCCNC(=O)c3ccccc3Cl)CC2)cc1
- inhibition [1]: 20.1%

Structure (SMILES): Cc1nn([C@@H](C)c2nnnn2C2CC2)cc1C1CCNCC1
- inhibition (PRVABC59, Concentration 49.5 uM, Number of replicates 2.0, Standard deviation 2.3033064314790743 %): -1.29%
- inhibition (PRVABC59, Concentration 99.01 uM, Number of replicates 2.0, Standard deviation 2.6844291293545366 %): -0.376%
- inhibition (PRVABC59, Concentration 198.0 uM, Number of replicates 2.0, Standard deviation 0.3562668047004051 %): -3.04%

Structure (SMILES): CN1CCN(c2ccc(NC(=O)c3cc(Cl)ccc3NS(=O)(=O)c3ccc(Oc4ccccc4Cl)cc3)cc2F)CC1
- inhibition [2]: 35.5%

Structure (SMILES): Cc1ccc(Cl)cc1N1CCN(C(=O)c2cc(Cl)ccc2NS(=O)(=O)c2ccc(Oc3ccccc3Cl)cc2)CC1
- inhibition [2]: 12.4%

Structure (SMILES): O=C(c1cc(Cl)ccc1NS(=O)(=O)c1ccc(Oc2ccccc2Cl)cc1)N1CC(Oc2ccc(Cl)cc2)C1
- inhibition [2]: 4.12%

Structure (SMILES): O=C(NCCOCc1ccccc1)c1cc(Cl)ccc1NS(=O)(=O)c1ccc(Oc2ccccc2Cl)cc1
- inhibition [2]: 31%

Structure (SMILES): CCCCCC(=O)N[C@H](C(=O)NCc1cccc(CN)c1)C1CCOCC1
- inhibition (PRVABC59, Concentration 49.5 uM, Number of replicates 2.0, Standard deviation 0.5056486622284423 %): -0.377%
- inhibition (PRVABC59, Concentration 99.01 uM, Number of replicates 2.0, Standard deviation 0.25282436140726855 %): -0.843%
- inhibition (PRVABC59, Concentration 198.0 uM, Number of replicates 2.0, Standard deviation 0.047404414981536996 %): 2.4%

Structure (SMILES): Cc1cc(F)cc(Br)c1NC(=O)c1cc(Cl)ccc1NS(=O)(=O)c1ccc(Oc2ccccc2Cl)cc1
- inhibition [2]: 23.2%

Structure (SMILES): COc1ccc(CN(C)C(=O)C2CCN(c3ccc(C=O)cc3)CC2)cc1O
- inhibition [1]: 21.5%

Structure (SMILES): CCc1ccc(CN(CC(C)C)C(=O)C2CCN(c3ccc(C=O)cc3)CC2)cc1
- inhibition [1]: 24.3%

Structure (SMILES): O=Cc1ccc(N2CCC(C(=O)NCC3CCC(C(F)(F)F)CC3)CC2)cc1 (stereo not given)
- inhibition [1]: 26%

Structure (SMILES): O=C(Nc1cncc(Br)c1)c1cc(Cl)ccc1NS(=O)(=O)c1ccc(Oc2ccccc2Cl)cc1
- inhibition [2]: 24.9%

Structure (SMILES): O=C(c1cc(Cl)ccc1NS(=O)(=O)c1ccc(Oc2ccccc2Cl)cc1)N1CC[C@@]2(O)CCCC[C@H]2C1
- inhibition [2]: 4.56%
